In all, about 33,000 sequences were measured (“E-score (-0.5 to 0.5)”: median about -0.041, highest 2% from about 0.37 on). Some of the results follow.
Target: T1, Ecm22 (UniProt Q05958)
T1 sequence: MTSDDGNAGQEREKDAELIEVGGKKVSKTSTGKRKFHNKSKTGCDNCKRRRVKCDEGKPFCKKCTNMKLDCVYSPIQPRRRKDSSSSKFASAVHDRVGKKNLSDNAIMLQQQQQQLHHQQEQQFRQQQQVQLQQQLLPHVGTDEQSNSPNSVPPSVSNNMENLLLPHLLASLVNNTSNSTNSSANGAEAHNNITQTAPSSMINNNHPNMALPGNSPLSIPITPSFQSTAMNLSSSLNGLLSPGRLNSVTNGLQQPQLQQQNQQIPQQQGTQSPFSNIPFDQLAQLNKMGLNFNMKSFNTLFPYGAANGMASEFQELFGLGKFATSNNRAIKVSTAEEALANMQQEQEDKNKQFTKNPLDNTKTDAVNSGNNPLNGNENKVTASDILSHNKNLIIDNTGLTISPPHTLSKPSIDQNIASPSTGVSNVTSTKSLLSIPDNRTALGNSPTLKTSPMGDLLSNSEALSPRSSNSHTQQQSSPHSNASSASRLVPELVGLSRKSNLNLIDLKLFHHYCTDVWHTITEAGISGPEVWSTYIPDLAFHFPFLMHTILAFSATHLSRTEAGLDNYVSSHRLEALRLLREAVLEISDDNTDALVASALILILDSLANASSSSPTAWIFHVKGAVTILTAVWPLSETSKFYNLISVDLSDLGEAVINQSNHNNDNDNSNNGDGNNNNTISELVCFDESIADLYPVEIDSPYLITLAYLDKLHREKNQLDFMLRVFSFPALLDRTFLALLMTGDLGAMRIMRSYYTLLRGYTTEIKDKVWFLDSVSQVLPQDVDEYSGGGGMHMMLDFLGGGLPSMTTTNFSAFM
Experiment: PBM E-score (8-mer binding enrichment) (E-score (-0.5 to 0.5)); higher = stronger / more preferred TF binding; most listed sequences are background and not binding sites
Conditions: protein concentration: 200 nM; construct: GST-full length
Summary of the method: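 The E-score, a modified Wilcoxon-Mann-Whitney statistic, was computed by the Universal PBM Analysis Suite for every ungapped eight-base word pooled with its reverse complement. Scans behind it were normalised with masliner after bound GST-tagged yeast transcription factors were detected with fluorescent anti-GST. The proteins, at about 100-200 nM, had been applied to universal all-10-mer Agilent arrays made double-stranded by primer extension.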

Row | Sequence | PBM E-score
1 | CCATTTGC | -0.0821
2 | ACGAACCA | 0.391
3 | ATTTCCTC | 0.0768
4 | CATAGCGG | -0.0573
5 | CGCTCTGC | 0.0549
6 | AACTCGTA | 0.47
7 | AAGTTTGC | -0.0114
8 | CGAGAAAG | 0.109
9 | CGAGCAGA | 0.192
10 | AACGCACA | 0.135
11 | GCCGCGGC | 0.16
12 | ATCATGGA | -0.243
13 | GGGTTAAA | 0.0395
14 | AATGGAGC | -0.0454
15 | GGTCCGAC | 0.17
16 | CAGTTTCG | 0.0868
17 | CTTCTGTA | -0.0207
18 | GCGACCGA | 0.218
19 | AACTTCCC | -0.0659
20 | ATGCTTGG | -0.113
21 | CTACGAGA | 0.385
22 | ATCGATCC | 0.0447
23 | CATGCGCG | -0.0112
24 | AAGAAGTC | -0.16
25 | AGAAGAGA | -0.0866

Row | Sequence | PBM E-score
26 | ATTTTTCA | -0.017
27 | CCTCCCCG | 0.0606
28 | AGGAATTA | 0.00567
29 | CGATCAAA | 0.15
30 | TAACCGCA | 0.0749
31 | GCTTCATA | -0.135
32 | CACACGGG | -0.23
33 | AAGCAAAA | -0.13
34 | CTGTGGGA | -0.225
35 | CTAATTTC | 0.1
36 | GCGATAGC | -0.0401
37 | TAGAGAAA | -0.0156
38 | CAAATACA | -0.0654
39 | CAGCGGGC | -0.252
40 | CAAACAGG | -0.00237
41 | CCGCCCCC | -0.274
42 | CAGCTCCA | -0.15
43 | AATACAAG | -0.0209
44 | CTCGAAAC | 0.0639
45 | AATCATGA | 0.0738
46 | CCTGCTCC | -0.0691
47 | CCAAGTCA | -0.149
48 | AATAAAAG | -0.165
49 | AGTTTGGC | -0.00953
50 | TCAAGACA | -0.228

Row | Sequence | PBM E-score
51 | AAAAACTT | -0.152
52 | CAGATTCG | -0.0112
53 | ACCAGATG | -0.109
54 | CCAGACCC | -0.2
55 | CCGAGGGA | -0.0341
56 | AGGCGCCA | -0.163
57 | GGTGACAC | -0.179
58 | CGGGCCCC | -0.116
59 | GGGACTCA | -0.201
60 | TCGCACGA | 0.183
61 | AATGTCCA | -0.296
62 | CAAATTCA | -0.345
63 | AACAAGCT | 0.0706
64 | GTTTGGGA | 0.172
65 | ACACCACT | 0.0634
66 | CCACCCGC | -0.0883
67 | GTAATTGA | 0.0734
68 | GATTTACC | 0.039
69 | GACCGGGA | -0.0371
70 | ATGGCAAT | 0.0142
71 | CTAGCTAC | -0.0828
72 | AAGAGGAG | -0.00745
73 | ATACCTAG | -0.0691
74 | AGTGTGTA | -0.069
75 | CACCTTTA | -0.0916

Row | Sequence | PBM E-score
76 | GAGTTATC | 0.166
77 | GATTCAAA | -0.126
78 | CATCCCAC | -0.198
79 | ACTAATGG | -0.153
80 | GATAGTGC | -0.0363
81 | CAGAGCCG | -0.0855
82 | ACGCCCCG | 0.0212
83 | CCTGACAC | -0.117
84 | CGGCGCCA | 0.105
85 | ACCGCATC | -0.13
86 | AGATCACC | -0.0611
87 | CGCGATTC | 0.197
88 | CTCATCTA | 0.0284
89 | ACACTCGT | 0.337
90 | AACATTAA | 0.0332
91 | AGTACAGA | 0.0225
92 | TACCGGGA | 0.0279
93 | CGAATCAG | 0.0842
94 | AGCTCACC | -0.0549
95 | ACAACCAT | 0.0954
96 | AGTCCGAG | 0.0545
97 | AGCACTGG | -0.121
98 | GATCCAAA | -0.0382
99 | CCACTGAG | -0.199
100 | TACTACTA | 0.18

Row | Sequence | PBM E-score
101 | CGCGGTGA | 0.0662
102 | GAAGCAAC | -0.0479
103 | CCCCCGGA | -0.346
104 | ACCCTTAT | 0.00524
105 | AAAATTCG | 0.141
106 | AATCGCGC | 0.00974
107 | GGCACCGA | -0.0384
108 | CTGTGGGC | -0.108
109 | CGGAGACA | 0.0239
110 | CCATACCC | -0.00508
111 | CCATTCCA | -0.228
112 | AGGAGGGC | -0.212
113 | CTGGGAGC | -0.064
114 | AACGCGTC | 0.115
115 | CAACAGAG | -0.255
116 | AAAACATC | -0.121
117 | GCGAAATA | 0.0791
118 | GTTCCCCA | 0.163
119 | AACGCGTT | 0.212
120 | TAGGAACA | -0.258
121 | GATGTGAA | 0.0574
122 | GATATACC | 0.101
123 | AAACTTCC | -0.165
124 | GAACTTCC | -0.138
125 | TGGTATAA | 0.0724

Row | Sequence | PBM E-score
126 | AGATATCA | -0.0421
127 | CATAGCGC | -0.0593
128 | CATAACGC | 0.00293
129 | AAACGAAA | 0.449
130 | TAAGCTCA | -0.11
131 | AAGCTCAG | -0.321
132 | CCACACGA | 0.0278
133 | CGTTTGAG | 0.32
134 | AGGGAAGA | -0.234
135 | AGCCGTCG | 0.199
136 | AAATACTG | -0.0315
137 | ACTGCGCG | 0.0421
138 | CACGGAGG | -0.084
139 | CATACGGG | 0.36
140 | CAAGTATA | -0.0156
141 | ATGGCAGC | -0.141
142 | CTCACTGC | -0.222
143 | AGGAAAAC | 0.0952
144 | GACTATTA | 0.0301
145 | TTTAAAAA | -0.0493
146 | ATGGATAA | -0.111
147 | CATGTAGG | -0.178
148 | ATAACGAT | 0.0556
149 | AGGGAATC | -0.126
150 | CGTACCAA | 0.444

Row | Sequence | PBM E-score
151 | CTCTGTGA | -0.221
152 | ACCACGAA | 0.0092
153 | ACGTGATG | -0.0931
154 | AAACAGCG | 0.0227
155 | GTGGACGA | -0.109
156 | ATCCGAAC | 0.144
157 | AGCTTTCC | -0.18
158 | AGAGCCGA | 0.0772
159 | AGGTGAGA | -0.218
160 | CTAGTACA | -0.148
161 | GGCTATTA | -0.0382
162 | ACATTAAT | 0.0488
163 | CTTCAATC | -0.0969
164 | CGGAGGGC | -0.136
165 | CCGTTGGA | -0.28
166 | AGAGAGAG | -0.0157
167 | AACCTAGC | -0.09
168 | GATTGTCA | -0.0204
169 | ATAACCCA | -0.0752
170 | TCCGACGA | 0.196
171 | TGCGTCAA | -0.231
172 | CAATTCCC | -0.0317
173 | CATTGCAC | 0.04
174 | AGCTGTTA | 0.00656
175 | GTACAAGA | 0.12

Row | Sequence | PBM E-score
176 | CAAATAGA | -0.0229
177 | CTCCTAGA | -0.21
178 | AGAACCCT | -0.0494
179 | AAGCTGTA | 0.104
180 | ATTGAGCA | -0.152
181 | AAAATGAC | -0.123
182 | ACCCTCGA | -0.16
183 | ACGCATAC | 0.227
184 | ACCGTCGC | 0.278
185 | CGCAGTCA | -0.22
186 | ACATGACT | -0.248
187 | ACCTGTGG | -0.164
188 | CTATTGCA | -0.0672
189 | ACGGCTGC | 0.0588
190 | CTCAGGAG | -0.21
191 | CAGACTAG | -0.325
192 | CACCAGTG | -0.145
193 | CCATCGAA | -0.136
194 | AGTTTCAC | -0.0972
195 | CGCTGGAC | -0.18
196 | ACTTCCGC | -0.0376
197 | AGAGTGGG | -0.0087
198 | ATAATCGA | 0.0844
199 | CAGTTGGG | -0.0976
200 | CAGTTCCC | 0.102

Row | Sequence | PBM E-score
201 | ACGTATTC | 0.144
202 | AACGCTGG | 0.00556
203 | AGCCGAAT | 0.0783
204 | GCTTCGCC | -0.0915
205 | CCTTATCG | -0.0002
206 | AGGTACGC | 0.217
207 | ACCAGCTG | -0.0907
208 | ACTTGCGG | -0.0228
209 | AAGTCAGG | -0.173
210 | TACGTACA | 0.328
211 | CATATCAA | 0.0699
212 | CGCTAGGC | -0.311
213 | GGCCCCAA | -0.0367
214 | CAGGTATA | 0.0502
215 | AAGATAGA | -0.129
216 | ATCCAGAG | -0.078
217 | AGTCAGCG | -0.216
218 | GAACCACC | 0.00425
219 | GTGCAAAA | -0.177

— the supplement of paper PMC3334620
